Most values come without repeats; read them as rough.
Columns and labels:
[1] = test system: CHO-K1; assay: micronucleus frequency (% of nucleated events); higher = more micronuclei (genotoxic)
[2] = test system: CHO-K1; assay: hypodiploid nuclei frequency (% of nucleated events); higher = more hypodiploid events (aneugenic)
[3] = test system: CHO-K1; assay: relative survival (nuclei to bead ratio vs DMSO control) (% of vehicle control); higher = more surviving cells
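For hypodiploid nuclei frequency (% of nucleated events) in this document: hypodiploid nuclei gated on a flow cytometer with 488 nm excitation after SYTOX Green staining, cultures at 37 °C, positive controls vinblastine without S9 and cyclophosphamide with S9.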
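For micronucleus frequency (% of nucleated events) in this document: cells lysed with nuclei stained by SYTOX Green, then micronucleus-gated events counted against nucleated events by flow cytometry with 488 nm excitation.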
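For relative survival (nuclei to bead ratio vs DMSO control) in this document: Lysed-cell nuclei stained with SYTOX Green and counted against counting beads by flow cytometry at 488 nm excitation, with vinblastine (no S9) and cyclophosphamide (plus S9) as positive controls.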

OCC1CO1 (stereo unspecified) [Glycidol]
Settings | hypodiploid nuclei frequency, [2] [%] | micronucleus frequency, [1] [%] | relative survival, [3]
concentration: 4.5 (µM), S9 metabolic activation: with S9, exposure time: 3-4 hours | 0.24 | 1.04 | 87.4
concentration: 4.5 (µM), S9 metabolic activation: without S9, exposure time: 24 hours | 0.68 | 0.96 | 103
concentration: 5.63 (µM), S9 metabolic activation: with S9, exposure time: 3-4 hours | 0.08 | 0.86 | 131
concentration: 5.63 (µM), S9 metabolic activation: without S9, exposure time: 24 hours | 0.78 | 1.34 | 102
concentration: 7.04 (µM), S9 metabolic activation: with S9, exposure time: 3-4 hours | 0.12 | 0.78 | 113
concentration: 7.04 (µM), S9 metabolic activation: without S9, exposure time: 24 hours | 0.96 | 1.7 | 93.9
concentration: 8.8 (µM), S9 metabolic activation: with S9, exposure time: 3-4 hours | 0.28 | 1.66 | 115
concentration: 8.8 (µM), S9 metabolic activation: without S9, exposure time: 24 hours | 0.8 | 1.28 | 109
concentration: 11 (µM), S9 metabolic activation: with S9, exposure time: 3-4 hours | 0.26 | 1.7 | 112
concentration: 11 (µM), S9 metabolic activation: without S9, exposure time: 24 hours | 0.98 | 1.42 | 104
concentration: 13.7 (µM), S9 metabolic activation: with S9, exposure time: 3-4 hours | 0.24 | 1.78 | 105
concentration: 13.7 (µM), S9 metabolic activation: without S9, exposure time: 24 hours | 0.94 | 1.3 | 102
concentration: 17.2 (µM), S9 metabolic activation: with S9, exposure time: 3-4 hours | 0.3 | 1.76 | 120
concentration: 17.2 (µM), S9 metabolic activation: without S9, exposure time: 24 hours | 0.72 | 1.3 | 91.4
concentration: 21.5 (µM), S9 metabolic activation: with S9, exposure time: 3-4 hours | 0.2 | 1 | 97.2
concentration: 21.5 (µM), S9 metabolic activation: without S9, exposure time: 24 hours | 0.56 | 1.52 | 101
concentration: 26.8 (µM), S9 metabolic activation: with S9, exposure time: 3-4 hours | 0.28 | 0.8 | 117
concentration: 26.8 (µM), S9 metabolic activation: without S9, exposure time: 24 hours | 1.62 | 2.2 | 121
concentration: 33.6 (µM), S9 metabolic activation: with S9, exposure time: 3-4 hours | 0.26 | 0.96 | 94.5
concentration: 33.6 (µM), S9 metabolic activation: without S9, exposure time: 24 hours | 2.02 | 1.62 | 104
concentration: 41.9 (µM), S9 metabolic activation: with S9, exposure time: 3-4 hours | 0.28 | 0.68 | 95.8
concentration: 41.9 (µM), S9 metabolic activation: without S9, exposure time: 24 hours | 1.3 | 1.36 | 100
concentration: 52.4 (µM), S9 metabolic activation: with S9, exposure time: 3-4 hours | 0.4 | 1.12 | 92.2
concentration: 52.4 (µM), S9 metabolic activation: without S9, exposure time: 24 hours | 1.36 | 1.32 | 111
concentration: 65.5 (µM), S9 metabolic activation: with S9, exposure time: 3-4 hours | 0.32 | 1.18 | 100
concentration: 65.5 (µM), S9 metabolic activation: without S9, exposure time: 24 hours | 0.98 | 1.6 | 118
concentration: 81.9 (µM), S9 metabolic activation: with S9, exposure time: 3-4 hours | 0.14 | 1.02 | 109
concentration: 81.9 (µM), S9 metabolic activation: without S9, exposure time: 24 hours | 1.2 | 2 | 104
concentration: 102 (µM), S9 metabolic activation: with S9, exposure time: 3-4 hours | 0.24 | 1.44 | 100
concentration: 102 (µM), S9 metabolic activation: without S9, exposure time: 24 hours | 1.14 | 1.66 | 96.3
concentration: 128 (µM), S9 metabolic activation: with S9, exposure time: 3-4 hours | 0.26 | 1 | 112
concentration: 128 (µM), S9 metabolic activation: without S9, exposure time: 24 hours | 0.96 | 1.54 | 96.3
concentration: 160 (µM), S9 metabolic activation: with S9, exposure time: 3-4 hours | 0.2 | 1.58 | 107
concentration: 160 (µM), S9 metabolic activation: without S9, exposure time: 24 hours | 1.3 | 2.3 | 132
concentration: 200 (µM), S9 metabolic activation: with S9, exposure time: 3-4 hours | 0.26 | 1.02 | 105
concentration: 200 (µM), S9 metabolic activation: without S9, exposure time: 24 hours | 1.06 | 1.96 | 121

ClC1=C(Cl)C2(Cl)C3C4OC4C(Cl)C3C1(Cl)C2(Cl)Cl (stereo unspecified) [Heptachlor epoxide]
Settings | hypodiploid nuclei frequency, [2] [%] | micronucleus frequency, [1] [%] | relative survival, [3]
concentration: 4.5 (µM), S9 metabolic activation: with S9, exposure time: 3-4 hours | 0.2 | 0.9 | 116
concentration: 4.5 (µM), S9 metabolic activation: without S9, exposure time: 24 hours | 0.56 | 1.14 | 133
concentration: 5.63 (µM), S9 metabolic activation: with S9, exposure time: 3-4 hours | 0.16 | 1.14 | 120
concentration: 5.63 (µM), S9 metabolic activation: without S9, exposure time: 24 hours | 0.5 | 1.52 | 108
concentration: 7.04 (µM), S9 metabolic activation: with S9, exposure time: 3-4 hours | 0.1 | 0.92 | 123
concentration: 7.04 (µM), S9 metabolic activation: without S9, exposure time: 24 hours | 0.54 | 1.34 | 117
concentration: 8.8 (µM), S9 metabolic activation: with S9, exposure time: 3-4 hours | 0.18 | 0.84 | 99.9
concentration: 8.8 (µM), S9 metabolic activation: without S9, exposure time: 24 hours | 0.6 | 1.08 | 102
concentration: 11 (µM), S9 metabolic activation: with S9, exposure time: 3-4 hours | 0.14 | 1 | 108
concentration: 11 (µM), S9 metabolic activation: without S9, exposure time: 24 hours | 0.84 | 1.02 | 126
concentration: 13.7 (µM), S9 metabolic activation: with S9, exposure time: 3-4 hours | 0.14 | 1.04 | 94.9
concentration: 13.7 (µM), S9 metabolic activation: without S9, exposure time: 24 hours | 0.44 | 1.42 | 112
concentration: 17.2 (µM), S9 metabolic activation: with S9, exposure time: 3-4 hours | 0.22 | 1.1 | 102
concentration: 17.2 (µM), S9 metabolic activation: without S9, exposure time: 24 hours | 0.76 | 1.66 | 120
concentration: 21.5 (µM), S9 metabolic activation: with S9, exposure time: 3-4 hours | 0.14 | 1.14 | 97.3
concentration: 21.5 (µM), S9 metabolic activation: without S9, exposure time: 24 hours | 0.56 | 1.26 | 89.4
concentration: 26.8 (µM), S9 metabolic activation: with S9, exposure time: 3-4 hours | 0.04 | 0.74 | 107
concentration: 26.8 (µM), S9 metabolic activation: without S9, exposure time: 24 hours | 0.86 | 1.76 | 95.5
concentration: 33.6 (µM), S9 metabolic activation: with S9, exposure time: 3-4 hours | 0.2 | 0.82 | 103
concentration: 33.6 (µM), S9 metabolic activation: without S9, exposure time: 24 hours | 1.08 | 1.88 | 106
concentration: 41.9 (µM), S9 metabolic activation: with S9, exposure time: 3-4 hours | 0.14 | 1.08 | 92
concentration: 41.9 (µM), S9 metabolic activation: without S9, exposure time: 24 hours | 1.06 | 1.98 | 99.4
concentration: 52.4 (µM), S9 metabolic activation: with S9, exposure time: 3-4 hours | 0.14 | 2.72 | 98
concentration: 52.4 (µM), S9 metabolic activation: without S9, exposure time: 24 hours | 1.58 | 2.34 | 87
concentration: 65.5 (µM), S9 metabolic activation: with S9, exposure time: 3-4 hours | 0.2 | 1.48 | 99.7
concentration: 65.5 (µM), S9 metabolic activation: without S9, exposure time: 24 hours | 2.5 | 2.84 | 86.2
concentration: 81.9 (µM), S9 metabolic activation: with S9, exposure time: 3-4 hours | 0.22 | 1.04 | 87.3
concentration: 81.9 (µM), S9 metabolic activation: without S9, exposure time: 24 hours | 2.06 | 2.7 | 69.1
concentration: 102 (µM), S9 metabolic activation: with S9, exposure time: 3-4 hours | 0.24 | 1.52 | 90.6
concentration: 102 (µM), S9 metabolic activation: without S9, exposure time: 24 hours | 2.22 | 2.76 | 82.6
concentration: 128 (µM), S9 metabolic activation: with S9, exposure time: 3-4 hours | 0.26 | 1.26 | 84.5
concentration: 128 (µM), S9 metabolic activation: without S9, exposure time: 24 hours | 2.24 | 2.56 | 70.3
concentration: 160 (µM), S9 metabolic activation: with S9, exposure time: 3-4 hours | 0.24 | 1.34 | 80.5
concentration: 160 (µM), S9 metabolic activation: without S9, exposure time: 24 hours | 1.78 | 2.3 | 79.5
concentration: 200 (µM), S9 metabolic activation: with S9, exposure time: 3-4 hours | 0.2 | 2.08 | 76.5
concentration: 200 (µM), S9 metabolic activation: without S9, exposure time: 24 hours | 2.14 | 1.94 | 65.8

Reference: the supplement of paper PMC9151546
